Our source for the Potency values is PubChem BioAssay (Tox21).

Records with an inconclusive call do not appear. Calls come from the whole dose curve; as a rule, active = well fitted cell-killing curve with a large enough effect in the repeat runs; inconclusive = weak or mixed curves, or effect the other way; inactive = flat fitted curve, though single readings scatter. Some structures have more than one record in an assay (separate samples or runs), and their calls can disagree. Not every entry of the source has a single result; some have several. The list is limited to them. There may be further records. Values given together repeat one measurement across runs, samples, wells, individuals or studies. What stands in brackets tells the records apart. Letters count within one entry.
Potency is the fitted concentration of half-maximal effect.

The first assay is described as follows: cAMP Responsive Elements (CRE) small molecule antagonists, cell-based qHTS assay: qHTS cell viability counter screen (AID 2060913). Note: nearly all actives have a fitted effect of over 40% in size. As to conditions: CRE-bla HEK293T viability, CellTiter-Glo luminescence, 5 h; series mostly up to 42.5 µM. An excerpt: (§1) U.S. Tox21 Program National Center for Advancing Translational Sciences [NCATS] Division of Preclinical Innovation [DPI] U.S. Environmental Protection Agency [EPA] National Institutes of Environmental Health Sciences [NIEHS] National Toxicology Program [NTP] U.S. Food and Drug Administration [FDA] Tox21 Assay Overview: CREB (cyclic-AMP Responsive Element Binding Protein) is a cellular transcription factor. It binds to certain DNA sequences called cAMP Responsive Elements (CRE) and regulates the transcription of the genes. […] This cell line can be used to find agonists/antagonists of the cyclic AMP signaling pathway. The activation of the report gene under culture conditions can be detected by fluorescence intensity. This cell line has been used to screen the Tox21 10K compound library to identify agonists that induce oxidative stress. The cytotoxicity of the Tox21 compound library against the CRE-bla cell line was tested in parallel by measuring the cell viability using CellTiter-Glo assay (Promega, Madison, WI) in the same wells.
Tox21 Assay Protocol Summary: CRE-bla Hek 293T cells were suspended in assay medium (DMEM containing 10% dialyzed FBS, 0.1 mM NEAA, 1 mM sodium pyruvate and 25 mM HEPES) and dispensed at 2,000 cells/4 uL /well into 1536-well black wall/clear bottom plates using a Multidrop Combi (ThermoFisher Scientific, Waltham, MA) dispenser. After the assay plates were incubated at 37 C/5% CO2 for 18 hrs, 23 nL of compounds dissolved in DMSO, positive controls or DMSO only was transferred to the assay plate by a pintool workstation (Kalypsys, San Diego, CA), followed by addition of 1 uL of 1.25uM NKH477 (0.25 uM as final concentration) in assay medium using a Flying Reagent Dispenser (Aurora Discovery, San Diego, CA). The plates were incubated at 37 C and 5% CO2 for 3 hrs. Then 1 uL of LiveBLAzer B/G FRET substrate (Invitrogen, Carlsbad, CA) was added to each well using Bioraptr Flying Reagent Dispenser (FRD, Aurora Discovery, San Diego, CA). The plates were incubated at room temperature for 2 h, then fluorescence intensities were measured using an Envision plate reader (PerkinElmer, Shelton, CT) at Excitation 405nm, Emission 460nm and 530nm. The % activity was determined from the ratio of 460nm/530nm. For cell viability readout that measures cytotoxicity, 4 uL /well of CellTiter-Glo reagent was added into the assay plates using Bioraptr FRD. After 30 min incubation at room temperature, the luminescence intensity in the assay plates was measured using a ViewLux (PerkinElmer, Shelton, CT) plate reader.
As for `Cc1c(O)cccc1C(=O)N[C@@H](CSc1ccccc1)[C@H](O)CN1C[C@H]2CCCC[C@H]2C[C@H]1C(=O)NC(C)(C)C`, the Potency result was “active: 26.6 µM [sample A] and inactive [sample B]”. `CCCCC(CC)COC(=O)c1ccc(O)cc1` (centres undefined): the Potency result is “inactive [sample A] and active: 50.8 µM [sample B]”. On to `Oc1c(Cl)cc(Cl)c(Cl)c1Cc1c(O)c(Cl)cc(Cl)c1Cl`, for which the Potency result was “active: 22.7 µM [sample A] and inactive [sample B]”. For the molecule `CCCCCCCCCCCCCCCO`, the Potency result is “active: 43.6 µM [sample A] and inactive [sample B]”. Consider `Oc1ccc(Cl)cc1Sc1cc(Cl)ccc1O`, for which the Potency result was “active: 24.3 µM [sample A] and inactive [sample B]”. Still for that read-out and setting: next, `CC(=O)O[C@]1(C(C)=O)CC[C@H]2[C@@H]3C=C(Cl)C4=CC(=O)CC[C@]4(C)[C@H]3CC[C@@]21C`: “active: 43.2 µM [sample A] and inactive [sample B]”; `Clc1ccc(C(c2ccccc2Cl)C(Cl)Cl)cc1` (centres undefined): “active: 45.2 µM [sample A] and inactive [sample B]”; `NC(=NCCCCCCN=C(N)/N=C(\N)Nc1ccc(Cl)cc1)/N=C(\N)Nc1ccc(Cl)cc1`: “active: 60.6 µM [sample A] and inactive [sample B] and inactive [sample C]”.

Another assay is described as follows: cAMP Responsive Elements (CRE) small molecule agonists, cell-based qHTS assay: qHTS cell viability counter screen (AID 2060914).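 Note: viability read after 3 h of compound exposure; nearly all actives have a fitted effect of over 50% in size.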 The settings on record: CRE-bla HEK293T viability, CellTiter-Glo luminescence, 5 h; series mostly up to 92.4 µM.
Excerpt: National Center for Advancing Translational Sciences [NCATS]
Division of Preclinical Innovation [DPI]
U.S. Environmental Protection Agency [EPA]
National Institutes of Environmental Health Sciences [NIEHS]
National Toxicology Program [NTP]
U.S. Food and Drug Administration [FDA]
as §1, with “CREB” for “U.S. Tox21 Program National Center for Advancing Translational Sciences [NCATS] Division of Preclinical Innovation [DPI] U.S. Environmental Protection Agency [EPA] National Institutes of Environmental Health Sciences [NIEHS] National Toxicology Program [NTP] U.S. Food and Drug Administration [FDA] Tox21 Assay Overview: CREB”
Tox21 Assay Protocol Summary:
CRE-bla Hek 293T cells were suspended in assay medium (DMEM containing 10% dialyzed FBS, 0.1 mM NEAA, 1 mM sodium pyruvate and 25 mM HEPES) and dispensed at 2,000 cells/5 uL /well into 1536-well black wall/clear bottom plates using a Multidrop Combi (ThermoFisher Scientific, Waltham, MA) dispenser. After the assay plates were incubated at 37 C/5% CO2 for 18 hrs, 23 nL of compounds dissolved in DMSO, positive controls or DMSO only was transferred to the assay plate by a pintool workstation (Kalypsys, San Diego, CA). After the plates were incubated at 37 C/5% CO2 for 3 hrs, 1 uL of LiveBLAzer B/G FRET substrate (Invitrogen, Carlsbad, CA) was added to each well using Bioraptr Flying Reagent Dispenser (FRD, Aurora Discovery, San Diego, CA). The plates were incubated at room temperature for 2 h, then fluorescence intensities were measured using an Envision plate reader (PerkinElmer, Shelton, CT) at Excitation 405nm, Emission 460nm and 530nm. The % activity was determined from the ratio of 460nm/530nm. For cell viability readout that measures cytotoxicity, 4 uL /well of CellTiter-Glo reagent was added into the assay plates using Bioraptr FRD. After 30 min incubation at room temperature, the luminescence intensity in the assay plates was measured using a ViewLux (PerkinElmer, Shelton, CT) plate reader.
On the technique in general: Quantitative high-throughput screening tests each substance at several concentrations.
Consider `COc1ccc2cc3[n+](cc2c1OC)CCc1cc2c(cc1-3)OCO2`, for which the Potency result is “inactive [sample A] and active: 5.96 µM [sample B]”. On to `COc1ccc(CCN2CCC(Nc3nc4ccccc4n3Cc3ccc(F)cc3)CC2)cc1`, for which the Potency entry was “active: 49.6 µM [sample A] and inactive [sample B]”. Take `Oc1ccc(Cl)cc1Cc1cc(Cl)ccc1O`: the Potency result was “active: 31.2 µM [sample A] and inactive [sample B]”.

For `CC(C)(C)c1ccc(O)c(C(C)(C)C)c1`, the Potency result is “inactive [sample A] and active: 54.5 µM [sample B]”. As to `CC(=O)Oc1ccc(C(c2ccc(OC(C)=O)cc2)c2ccccn2)cc1`, the Potency result is “inactive [sample A] and active: 5.96 µM [sample B]”.

As for `Clc1ccc(C(c2ccccc2Cl)C(Cl)Cl)cc1` (centres undefined), the Potency result was “active: 43.3 µM [sample A] and inactive [sample B]”.
